Measured values published in the supplement of paper PMC3334620.
In all, about 33,000 sequences were measured (“E-score (-0.5 to 0.5)”: median about -0.035, highest 2% from about 0.35 on). The list shows a part of the results.

Biological target: T1, Pdr3 (UniProt P33200)
T1 sequence: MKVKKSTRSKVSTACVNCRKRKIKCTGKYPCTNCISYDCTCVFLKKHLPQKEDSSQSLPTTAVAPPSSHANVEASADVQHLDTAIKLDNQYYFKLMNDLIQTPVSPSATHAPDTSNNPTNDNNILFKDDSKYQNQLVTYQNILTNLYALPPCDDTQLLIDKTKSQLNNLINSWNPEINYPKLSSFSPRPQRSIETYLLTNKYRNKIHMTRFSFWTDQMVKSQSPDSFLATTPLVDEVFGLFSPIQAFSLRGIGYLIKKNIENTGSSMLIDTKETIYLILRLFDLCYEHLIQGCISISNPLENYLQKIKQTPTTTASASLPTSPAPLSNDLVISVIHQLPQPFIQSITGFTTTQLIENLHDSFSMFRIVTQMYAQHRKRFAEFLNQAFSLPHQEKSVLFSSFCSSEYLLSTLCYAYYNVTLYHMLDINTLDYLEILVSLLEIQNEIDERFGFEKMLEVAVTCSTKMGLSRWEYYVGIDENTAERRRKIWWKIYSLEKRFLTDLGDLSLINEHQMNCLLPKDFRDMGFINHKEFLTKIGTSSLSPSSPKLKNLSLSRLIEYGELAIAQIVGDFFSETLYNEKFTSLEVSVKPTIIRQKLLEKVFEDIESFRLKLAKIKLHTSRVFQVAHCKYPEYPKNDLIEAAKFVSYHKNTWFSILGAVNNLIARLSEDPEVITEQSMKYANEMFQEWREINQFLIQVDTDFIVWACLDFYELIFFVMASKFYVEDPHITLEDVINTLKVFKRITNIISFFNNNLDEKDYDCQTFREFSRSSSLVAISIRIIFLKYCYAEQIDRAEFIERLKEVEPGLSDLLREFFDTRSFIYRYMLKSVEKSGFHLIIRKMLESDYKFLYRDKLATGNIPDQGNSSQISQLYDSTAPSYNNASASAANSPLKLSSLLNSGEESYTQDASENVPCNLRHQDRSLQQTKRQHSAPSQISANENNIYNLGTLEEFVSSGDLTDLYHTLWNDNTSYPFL
Test: PBM E-score (8-mer binding enrichment) (E-score (-0.5 to 0.5)); higher = stronger / more preferred TF binding; most listed sequences are background and not binding sites
Conditions: protein concentration: 200 nM; construct: GST-full length
Outline: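 Using PURExpress in vitro transcription/translation, GST-tagged yeast transcription factors were made in full-length or DNA-binding-domain form. These were applied at about 100-200 nM to double-stranded universal all-10-mer Agilent arrays, and bound protein was detected with fluorescent anti-GST. Scans were normalised with masliner before the Universal PBM Analysis Suite assigned E-scores to ungapped eight-base words pooled with their reverse complements.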

Sequence | PBM E-score
GAACGGCC | 0.202
CTATACAC | -0.187
AGAGGACG | -0.0552
CTACTTGC | -0.00111
CCTGCCAA | -0.144
TATCTCCA | 0.0175
AGCAAAAG | -0.336
CCTAGAAA | -0.0522
CTCGATAC | 0.0192
AAGTGTAT | -0.246
CGATTGCC | -0.0543
CGCCGCAA | 0.269
AGTGCACG | -0.0387
AGGTTTTA | -0.0633
CAATATGC | -0.0963
ATCGCGTC | 0.0876
ACTTGACT | -0.254
CGCTCCTA | -0.0844
AACGCTGA | -0.139
TGTAAAAA | -0.165
CAGGATGA | -0.171
CCTATCAA | -0.0626
CAGCGGCG | 0.154
TACTTAAA | -0.239
CGCAGGAA | 0.033

Sequence | PBM E-score
AAAAGCTC | 0.0158
CGTGTAAA | -0.148
CCTTGGTC | -0.123
CTATAGAG | -0.175
CGCCACGC | 0.00141
AACCAGGA | -0.0441
TAGCAAAA | -0.139
GTGACCAC | -0.134
CCTAGACC | -0.184
CTACCATA | -0.0761
ACCAGTTG | -0.171
TCCCTGAA | -0.0452
CTAGTCTA | -0.281
AAATTCGT | 0.226
AACTCTAT | -0.00718
CCCGGTAA | 0.202
ACTACTAA | -0.0208
AATCTTTA | -0.131
GATCCTTA | -0.133
AGAAGGCG | -0.15
CTGGATCC | 0.285
GGGTGGGA | 0.175
AATACGGT | -0.0727
GAACTCTC | -0.0534
CCCGTGGA | 0.395

Sequence | PBM E-score
CCCCCCAA | -0.198
GAGGAACA | 0.147
CCGCCGTA | 0.194
CTGTGACC | -0.0932
GCGCCTAC | 0.0207
ACACGCAT | -0.168
CACCAAAC | -0.02
ATTACTTG | -0.0328
ATGCGCTG | -0.0256
ACTAGCCA | -0.197
AAGACTCC | -0.146
CAGCTTTA | -0.00836
AGCGCCTA | 0.0254
CGGGTGTC | 0.161
GGGTCGGA | 0.227
ACTGGTGG | -0.223
GAACCTCA | -0.0542
GTGGACAA | 0.183
CGAGTGTC | 0.0372
AAGGGTCC | 0.205
CTATTACA | 0.0326
TAAGCCCA | -0.113
AACGTCCC | -0.0817
CGATCGCC | 0.152
CCAGCTAC | -0.0463

Sequence | PBM E-score
GAAGTACA | -0.0942
AAAGGAGC | -0.0204
CACGCTAC | -0.144
ACTCGGTG | -0.0495
ATGTAACC | 0.0796
CAGACAAC | 0.083
ACACGGAG | 0.284
CTCTTTCC | 0.141
CCTACTGA | -0.159
GCCGGATA | 0.368
GGGTTTCA | 0.0864
GGTCCCGA | 0.287
CGCGCTAC | 0.134
ATAGCCTC | 0.0247
AAACTTGG | -0.0784
TGTCAACA | -0.0926
CGCACAAA | 0.0204
ACGAACCT | -0.187
ATTCGGAA | 0.415
CTAGTATA | -0.0649
AGGGTACT | -0.16
ATCCAGCG | 0.174
ACTCAGAG | -0.128
AGACTCAT | -0.0927
TAGACATA | -0.0402

Sequence | PBM E-score
AATGATGT | 0.054
GAAGCCTC | -0.115
TGAGTCCA | -0.18
AACTACAA | 0.115
AGTTCCGG | 0.464
GCCTTACC | -0.192
GGTGCGGA | 0.275
GCACCGTA | 0.067
GGTTAGGA | -0.338
AACCATAT | 0.0335
CGGAGCGA | 0.378
GGAGTAAA | 0.114
ATCGCGCC | 0.203
AACAGCTT | 0.048
ATAAGCTG | -0.144
CACCTGAC | -0.221
ATTCGGGG | 0.337
CGGCTCCC | 0.131
CGCGCTTC | 0.139
CAAGTGGC | -0.0242
GCCAAGAA | -0.0394
TCTCAAAA | -0.0162
TCGCGACA | 0.12
CCAGGGGA | 0.00098
CTTACCGA | -0.0259

Sequence | PBM E-score
AAGCATGA | -0.0846
AATGATGA | 0.112
CTGGGATA | 0.0272
AGAATTTA | -0.053
TCGTTTAA | -0.231
TCGCAAAA | -0.0413
GGCGATAC | -0.018
TCGCTCAA | 0.041
TAAGAACA | 0.122
ACACAGTG | 0.0496
GTTCTTTA | 0.0362
GATCAACC | 0.138
ATTCATGC | 0.0716
GTTCGCTA | -0.0819
ACCCTGAA | -0.18
AGCAACGA | -0.105
GATACGCA | -0.137
GGGGCACA | -0.0775
GGCAAGAA | -0.0748
GAGCAGGA | -0.0326
AGCCACCA | -0.222
ATATATAG | 0.121
TCTAATAA | -0.272
ACGTATGC | -0.121
ATTGAGGA | -0.0437

Sequence | PBM E-score
AAGGGTGG | -0.171
ACTGGAGG | -0.0195
GCTACCAA | -0.138
GCCGCGCC | 0.098
AGATAGTG | -0.116
CCTAGAAG | -0.146
CTGAATTC | -0.136
ACTCTGGA | 0.00059
AGGCTTCA | -0.157
ATGTTCCA | 0.0325
ATAGGGAC | -0.0107
GCGTTGCA | 0.124
AAAGCCTG | -0.27
GCCTCGAA | -0.119
TAGGCCTA | -0.224
ACGGATTA | 0.217
AATGTGAA | -0.116
ACTGCGCT | -0.189
TCGTACCA | -0.0559
CTAAACCA | -0.192
ATATCATC | 0.0728
CCACCACG | -0.0173
